The whole screen tested about 3,200 compounds, of which about 110 (3.4%) showed an effect of 50% or more. The list shows a part of the results.
These compounds were tested on T1, V. cholerae SAD30. Details: relative growth, OD600, LB; 25 µM; inhibitor.
T1 construct: SAD30
Parameters: species or system S. aureus MSSA476 (TSB) or V. cholerae SAD30 (LB); 384-well bacterial growth screen at 25 uM, OD600 relative to DMSO control

SMILES | % of control remaining [%]
Cl.O=C(CCl)NC1CCN(Cc2cscn2)CC1 [7-H04, 2-chloro-N-{1-[(1,3-thiazol-4-yl)methyl]piperidin-4-yl}acetamide hydrochloride] | 92.1196
Cc1ccc(C2OCCCC2CNC(=O)C(C)Cl)cc1 (centres unmarked) [7-B09, 2-chloro-N-{[2-(4-methylphenyl)oxan-3-yl]methyl}propanamide] | 83.3967
O=C(CCl)N(Cc1ccoc1)C1CCCCC1 [5-B15, 2-chloro-N-cyclohexyl-N-[(furan-3-yl)methyl]acetamide] | 78.5121
CC1CSc2ccccc2N(C(=O)CCl)C1 (centres unmarked) [5-H07, 2-chloro-1-(3-methyl-2,3,4,5-tetrahydro-1,5-benzothiazepin-5-yl)ethan-1-one] | 98.8547
N#CC(=Cc1cccc(Cl)c1Cl)C(=O)Nc1ccc(F)cc1 [8-P22, 2-cyano-3-(2,3-dichlorophenyl)-N-(4-fluorophenyl)prop-2-enamide] | 87.8994
CC(Cl)C(=O)NCc1csc2ccccc12 (centres unmarked) [7-C11, N-[(1-benzothiophen-3-yl)methyl]-2-chloropropanamide] | 69.5192
C=CC(=O)N(C)Cc1nc2c(n1C)CCCC2 [2-K22, N-methyl-N-[(1-methyl-4,5,6,7-tetrahydro-1H-1,3-benzodiazol-2-yl)methyl]prop-2-enamide] | 107.488
CC(Cl)C(=O)N1CCNC(=O)C1c1c(F)cccc1Cl (centres unmarked) [6-D07, 3-(2-chloro-6-fluorophenyl)-4-(2-chloropropanoyl)piperazin-2-one] | 93.4307
C=CC(=O)Nc1ccnn1C1CCCC1 [2-K13, N-(1-cyclopentyl-1H-pyrazol-5-yl)prop-2-enamide] | 76.1459
CC(Cl)C(=O)NC1CCCn2nccc21 (centres unmarked) [6-J16, 2-chloro-N-{4H,5H,6H,7H-pyrazolo[1,5-a]pyridin-4-yl}propanamide] | 89.0321
C=CCNC(=O)C(C#N)=Cc1ccc(C(=O)O)cc1 [8-J04, 4-{2-cyano-2-[(prop-2-en-1-yl)carbamoyl]eth-1-en-1-yl}benzoic acid] | 76.3426
O=C(CCl)N1CCn2c(cc3ccccc32)C1 [5-A20, 2-chloro-1-{1H,2H,3H,4H-pyrazino[1,2-a]indol-2-yl}ethan-1-one] | 106.756
CC(NC(=O)C(C#N)=Cc1cc(O)ccc1[N+](=O)[O-])c1ccccc1 (centres unmarked) [9-D15, 2-cyano-3-(5-hydroxy-2-nitrophenyl)-N-(1-phenylethyl)prop-2-enamide] | 81.1013
Cc1ccc(C2=NN(C(=O)CCl)C(c3cccs3)C2)o1 (centres unmarked) [5-I17, 2-chloro-1-[3-(5-methylfuran-2-yl)-5-(thiophen-2-yl)-4,5-dihydro-1H-pyrazol-1-yl]ethan-1-one] | 100.704
N#CC(=Cc1ccccc1Cl)C(=O)Nc1ccc2c(c1)OCCO2 [8-F03, 3-(2-chlorophenyl)-2-cyano-N-(2,3-dihydro-1,4-benzodioxin-6-yl)prop-2-enamide] | 94.4256
Cc1ccccc1NC(=O)C(C#N)=Cc1ccsc1 [8-K15, 2-cyano-N-(2-methylphenyl)-3-(thiophen-3-yl)prop-2-enamide] | 70.6322
Cc1ccccc1CN1CCC(NC(=O)CCl)CC1.Cl [6-L08, 2-chloro-N-{1-[(2-methylphenyl)methyl]piperidin-4-yl}acetamide hydrochloride] | 89.7905
Cc1cc(C(=O)CCl)c(C)n1CCc1ccccc1 [10-B18, 2-chloro-1-[2,5-dimethyl-1-(2-phenylethyl)-1H-pyrrol-3-yl]ethan-1-one] | 95.3828
C=CC(=O)NCc1cccc(-c2nnc[nH]2)c1 [1-I18, N-{[3-(4H-1,2,4-triazol-3-yl)phenyl]methyl}prop-2-enamide] | 89.9851
N#CC(=Cc1csc(-c2ccsc2)n1)C(=O)NC1CC1 [9-N18, 2-cyano-N-cyclopropyl-3-[2-(thiophen-3-yl)-1,3-thiazol-4-yl]prop-2-enamide] | 88.5792
N#CC(=Cc1ccc(Cl)cc1Cl)C(=O)Nc1ccncc1 [8-M22, 2-cyano-3-(2,4-dichlorophenyl)-N-(pyridin-4-yl)prop-2-enamide] | 83.5486
C=CC(=O)N1CCC(C(=O)NCc2cc(=O)n3ccccc3n2)CC1 [3-L12, N-({4-oxo-4H-pyrido[1,2-a]pyrimidin-2-yl}methyl)-1-(prop-2-enoyl)piperidine-4-carboxamide] | 91.5604

SMILES | % of control remaining [%]
C=CC(=O)N(Cc1ccc(F)cn1)c1cnn(C2CCCC2)c1C [1-D11, N-(1-cyclopentyl-5-methyl-1H-pyrazol-4-yl)-N-[(5-fluoropyridin-2-yl)methyl]prop-2-enamide] | 86.846
O=C(CCl)N[C@H]1CCN(S(=O)(=O)c2ccccc2)C1 [7-P16, N-[(3S)-1-(benzenesulfonyl)pyrrolidin-3-yl]-2-chloroacetamide] | 91.0623
N#CC(=Cc1cccnc1)C(=O)Nc1ccc(F)cc1 [8-B21, 2-cyano-N-(4-fluorophenyl)-3-(pyridin-3-yl)prop-2-enamide] | 82.5969
CC(Cl)C(=O)N(C)Cc1ncnn1CC(F)F (centres unmarked) [7-C10, 2-chloro-N-{[1-(2,2-difluoroethyl)-1H-1,2,4-triazol-5-yl]methyl}-N-methylpropanamide] | 77.0527
CC(C)NC(=O)C(C#N)=Cc1cccs1 [8-H15, 2-cyano-N-(propan-2-yl)-3-(thiophen-2-yl)prop-2-enamide] | 71.0401
CC(Cl)C(=O)N1CCN(CC(F)(F)C(F)F)CC1 (centres unmarked) [7-J07, 2-chloro-1-[4-(2,2,3,3-tetrafluoropropyl)piperazin-1-yl]propan-1-one] | 78.5065
N#CC(=Cc1ccc(C#N)cc1)C(=O)Nc1cccc2ccccc12 [8-O16, 2-cyano-3-(4-cyanophenyl)-N-(naphthalen-1-yl)prop-2-enamide] | 69.1366
Cc1nc2n(n1)CCCC2NC(=O)CCl (centres unmarked) [7-F12, 2-chloro-N-{2-methyl-5H,6H,7H,8H-[1,2,4]triazolo[1,5-a]pyridin-8-yl}acetamide] | 78.5065
N#CC(=Cc1c[nH]c2ccccc12)C(=O)Nc1ccccn1 [9-B10, 2-cyano-3-(1H-indol-3-yl)-N-(pyridin-2-yl)prop-2-enamide] | 78.654
Cc1cc(CN(C(=O)CCl)C2CCCC2)c2ccccc2n1 [7-B20, 2-chloro-N-cyclopentyl-N-[(2-methylquinolin-4-yl)methyl]acetamide] | 87.8903
CC(C)c1ccc(CN(C(=O)CCl)C2CC2)cc1 [6-K18, 2-chloro-N-cyclopropyl-N-{[4-(propan-2-yl)phenyl]methyl}acetamide] | 82.0552
O=C(CCl)NCCOc1cccc(Cl)c1 [6-G05, 2-chloro-N-[2-(3-chlorophenoxy)ethyl]acetamide] | 100.863
CCN(C(=O)CCl)c1cccc2ccccc12 [5-B08, 2-chloro-N-ethyl-N-(naphthalen-1-yl)acetamide] | 103.058
C=CC(=O)N1CCOCC2(CC2)C1 [2-M15, 1-{5-oxa-8-azaspiro[2.6]nonan-8-yl}prop-2-en-1-one] | 88.1887
CC(Cl)C(=O)Nc1cc2c(cc1Cl)C(=O)c1ccccc1C2=O (centres unmarked) [4-I12, 2-chloro-N-(3-chloro-9,10-dioxo-9,10-dihydroanthracen-2-yl)propanamide] | 94.3714
C=CC(=O)N(C)CC(=O)N1CCc2ccc(S(C)(=O)=O)cc2CC1 [2-N08, N-[2-(7-methanesulfonyl-2,3,4,5-tetrahydro-1H-3-benzazepin-3-yl)-2-oxoethyl]-N-methylprop-2-enamide] | 88.1887
CCN(CC)S(=O)(=O)c1cc(NC(=O)C(C)Cl)ccc1C (centres unmarked) [4-P09, 2-chloro-N-[3-(diethylsulfamoyl)-4-methylphenyl]propanamide] | 107.138
COc1ccc(C=C(C#N)C(=O)Nc2ccccc2OC)cc1 [8-G09, 2-cyano-N-(2-methoxyphenyl)-3-(4-methoxyphenyl)prop-2-enamide] | 78.9259
COc1ccc([C@H]2C[C@H](NC(=O)C(C)Cl)C2)cc1F (some centres unmarked) [6-F17, 2-chloro-N-[(1r,3r)-3-(3-fluoro-4-methoxyphenyl)cyclobutyl]propanamide] | 82.0552
Cc1cc(C=C(C#N)C(=O)Nc2ccccc2)c(C)n1C1CC1 [8-E14, 2-cyano-3-(1-cyclopropyl-2,5-dimethyl-1H-pyrrol-3-yl)-N-phenylprop-2-enamide] | 74.1672
CC1(C)Cc2cc(C=C(C#N)C(=O)Nc3ccccc3F)ccc2O1 [8-G20, 2-cyano-3-(2,2-dimethyl-2,3-dihydro-1-benzofuran-5-yl)-N-(2-fluorophenyl)prop-2-enamide] | 73.8953
CN(C(=O)CCl)c1c(N)n(Cc2ccccc2)c(=O)[nH]c1=O [4-E06, N-(6-amino-1-benzyl-2,4-dioxo-1,2,3,4-tetrahydropyrimidin-5-yl)-2-chloro-N-methylacetamide] | 101.617
